{
  "source": "PubChem BioAssay AID504832",
  "about": "(National Center for Advancing Translational Sciences (NCATS), 2011)",
  "note": "Hit rate of the full screen: of about 310,000 compounds, about 18,000 (5.8%) were called active. The inconclusive results got no clear call from the source; some entries with a clear call stand among them for comparison. Calls follow the shape of the dose curve; as a rule, active = well fitted inhibition curve with a large enough effect; inconclusive = small, poorly fitted or top-dose-only effect, or another doubt; inactive = no such curve, though single readings can be large or run the other way. No potency is given beside an inconclusive call; the fits are too rough. Potency is read from the fitted curve at half-maximal effect; tags tell the direction and shape of the fitted curve.",
  "data": [
    {"assay": "Primary qHTS for delayed death inhibitors of the malarial parasite plastid, 48 hour incubation", "details": "P. falciparum luciferase growth in erythrocytes; series mostly up to 28.7 µM", "summary_of_the_method": "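Cell-based growth assay: transgenic P. falciparum expressing firefly luciferase, cultured in red cells within RPMI 1640 containing 0.5% w/v Albumax, 24 mM bicarbonate and gentamycin. A drop in luciferase activity indicates inhibition.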", "values": [
      {"smiles": "CCNc1nc2c(c(=O)[nH]c(=O)n2C)n1CC(C)C", "Potency": "inactive"},
      {"smiles": "CN1CCN(S(=O)(=O)c2ccc(N3CCN(C(=O)c4ccccc4)CC3)nc2)CC1", "Potency": "inactive"},
      {"smiles": "Cc1ccc(OCC(O)CNCc2ccc(F)cc2)cc1", "note": "(stereo unspecified)", "Potency": "inconclusive [inhibitor, single point]"},
      {"smiles": "CCOC(=O)N1CCC(NC(=O)CSCc2nc(-c3cccc(OC)c3)oc2C)CC1", "Potency": "inactive"},
      {"smiles": "O=C(NC1CC1)c1sc2cc(F)ccc2c1Cl", "Potency": "inactive"},
      {"smiles": "CC(=O)NC1=NN(C(C)=O)C(C)(CS(=O)(=O)c2ccc(Cl)cc2)S1", "note": "(stereo unspecified)", "Potency": "inactive"},
      {"smiles": "Cc1cccc([C@@H](NC(=O)OC(C)(C)C)C(=O)OC(C)(C)C)c1", "Potency": "inconclusive [inhibitor, single point]"},
      {"smiles": "Nc1nonc1C(=O)NCCNC(=O)c1cccc(Cl)c1", "Potency": "inactive"},
      {"smiles": "O=C(O)c1ccc(NC(CSCc2ccccc2F)C(=O)O)c([N+](=O)[O-])c1", "note": "(stereo unspecified)", "Potency": "inactive"},
      {"smiles": "CCCCn1c(N)c(N(CC(C)C)C(=O)c2oc3ccc(Br)cc3c2C)c(=O)[nH]c1=O", "Potency": "inconclusive [inhibitor, single point]"},
      {"smiles": "Cc1cc(CN2CCOCC2)c(O)c(C2(C)CCCCC2)c1", "Potency": "inconclusive [inhibitor, single point]"},
      {"smiles": "CC(/C=C/c1ccccc1)=N\\NC(N)=S", "Potency": "active: 10.4 µM"},
      {"smiles": "COc1ccc(C(=O)NCCn2ccc3ccccc32)cc1", "Potency": "inconclusive [inhibitor, single point]"},
      {"smiles": "COc1ccc(S(=O)(=O)N2c3ccccc3OCC2c2ccccc2)cc1", "note": "(stereo unspecified)", "Potency": "active: 13.1 µM"},
      {"smiles": "COC(=O)C(=Nc1ccccc1)/C(C(=O)C(=O)N(C)c1ccccc1)=C(\\O)c1ccccc1", "Potency": "inactive"},
      {"smiles": "CCc1cc(Cn2nc(-c3ccccc3)cc2C(=O)NCCOC)on1", "Potency": "inconclusive [inhibitor, single point]"},
      {"smiles": "CCOc1cc(/C=C/C(=O)O)ccc1OCc1ccccc1", "Potency": "inactive"},
      {"smiles": "Oc1ccc(CCNc2c3ccccc3nc3ccccc23)cc1O", "Potency": "active: 13.1 µM"},
      {"smiles": "O=C1N/C(=C/c2cccs2)C(=O)N1Cc1ccc(Br)cc1", "Potency": "inactive"},
      {"smiles": "COc1cc(NC(=O)C2CCCCC2)c(OC)cc1NC(=O)CN1CCCCC1", "Potency": "inactive"},
      {"smiles": "Cc1ccc(C(=O)CSc2nnc(COc3ccccc3)o2)cc1", "Potency": "inactive"},
      {"smiles": "O=C(O)c1cc(N/N=C/c2ccc(OCc3ccccc3)cc2)ccc1Cl", "Potency": "inactive"},
      {"smiles": "COc1ccc2c(c1)C(C)=CC(C)(C)N2C(=O)CNCc1ccc2c(c1)OCO2", "Potency": "inconclusive [inhibitor, partial curve, poor fit]"},
      {"smiles": "CCCn1c(=S)[nH]c2cc(OC)c(OC)cc2c1=O", "Potency": "inactive"},
      {"smiles": "Cc1ccc(CN2CCN(C(=O)c3cccc4ccccc34)CC2)cc1", "Potency": "inactive"},
      {"smiles": "O=C(CCNC(=O)c1ccco1)Nc1ccc(Cl)c(C(F)(F)F)c1", "Potency": "inactive"},
      {"smiles": "CCOC(=O)c1cnn(-c2ncnc3sc(C)c(C)c23)c1N", "Potency": "inconclusive [inhibitor, single point]"},
      {"smiles": "COc1ccccc1C(=O)NC(=S)Nc1ccc(N2CCN(C(=O)c3ccco3)CC2)cc1", "Potency": "inconclusive [inhibitor, single point]"},
      {"smiles": "Cc1ccc(NC(=O)COc2ccc(-c3nnco3)cc2)cc1S(=O)(=O)N1CCOCC1", "Potency": "inconclusive [inhibitor, partial curve, poor fit]"},
      {"smiles": "Cc1ccc(NC(=S)NC(NC(=O)C(C)(C)C)C(Cl)(Cl)Cl)c(C)c1", "note": "(stereo unspecified)", "Potency": "inconclusive [inhibitor, partial curve]"},
      {"smiles": "Cc1ccc(OCCn2cc(/C=N/NC(=O)c3ccncc3)c3ccccc32)cc1", "Potency": "inconclusive [inhibitor, single point]"},
      {"smiles": "CC(C)C(=O)Nc1nnc(SCC(=O)NCc2ccc3c(c2)OCO3)s1", "Potency": "inconclusive [inhibitor, single point]"},
      {"smiles": "CC12C(=O)N(c3nccs3)C(=O)C1C1C=CC2C1", "note": "(stereo unspecified)", "Potency": "inactive"},
      {"smiles": "Cc1ccc(C2=CSC3=NCCN23)c(C)c1", "Potency": "inconclusive [inhibitor, partial curve, poor fit]"},
      {"smiles": "CN(C)C(=O)c1ccc(-c2cc(C(F)(F)F)nn2C)s1", "Potency": "inactive"},
      {"smiles": "O=C(CCl)NC1CCCc2ccccc21", "note": "(stereo unspecified)", "Potency": "active: 11.7 µM"},
      {"smiles": "Cc1ccc(S(=O)(=O)N2CCOCC2)cc1C(=O)NCc1ccc(F)cc1", "Potency": "inactive"},
      {"smiles": "Cc1cccc(NC(=S)NC(NC(=O)c2ccco2)C(Cl)(Cl)Cl)c1", "note": "(stereo unspecified)", "Potency": "active: 13.1 µM"},
      {"smiles": "COc1ccc(-n2cnnc2SCC(=O)Nc2ccc(N3CCOCC3)cc2)cc1", "Potency": "inconclusive [inhibitor, full curve, poor fit]"},
      {"smiles": "Cc1ccc(CN2CCC(Oc3cccc(C(=O)NCc4cccnc4)c3)CC2)o1", "Potency": "inconclusive [inhibitor, single point]"},
      {"smiles": "Cc1ccc(-n2ccc(=O)c(C(=O)Nc3ccc(S(=O)(=O)Nc4nccs4)cc3)n2)cc1", "Potency": "inactive"},
      {"smiles": "Cc1cc(C)c(NC(=O)COC(=O)C2CCCCC2)c(C)c1", "Potency": "inconclusive [inhibitor, single point]"},
      {"smiles": "Cc1cc(C)cc(C(=O)NCc2ccc3c(c2)OCO3)c1", "Potency": "inactive"},
      {"smiles": "O=C(CSc1nc2ncccc2[nH]1)c1ccc(F)cc1", "Potency": "inactive"},
      {"smiles": "Cc1ccc(Nc2cc(C)nn2-c2nc(C)cc(=O)[nH]2)cc1", "Potency": "inconclusive [inhibitor, full curve, poor fit]"},
      {"smiles": "O=C(CSc1nc2ccccc2c(=O)[nH]1)Nc1nc(-c2ccc(Br)cc2)cs1", "Potency": "inactive"},
      {"smiles": "Cc1cccc(OCC(=O)Nc2ccc(NC(=O)c3ccco3)c(C)c2)c1", "Potency": "inconclusive [inhibitor, single point]"},
      {"smiles": "CN(CCC1CCOCC1)C(=O)CC1C(=O)NCCN1Cc1cccc(F)c1", "note": "(stereo unspecified)", "Potency": "inconclusive [inhibitor, partial curve, poor fit]"},
      {"smiles": "N#Cc1cnn2c(-c3cccc([N+](=O)[O-])c3)ccnc12", "Potency": "inactive"},
      {"smiles": "Cc1nn(-c2cccc(Cl)c2)c2nc(-c3ccncc3)cc(C(=O)N3CCOCC3)c12", "Potency": "inconclusive [inhibitor, full curve]"},
      {"smiles": "Cc1noc(C)c1COc1cccc(C(=O)NCc2cccc(Cl)c2)c1", "Potency": "inconclusive [inhibitor, single point]"},
      {"smiles": "O=C(Nc1ccc([N+](=O)[O-])cn1)c1cc(-c2cccc(Br)c2)nc2ccccc12", "Potency": "active: 3.7 µM"},
      {"smiles": "COc1ccc(NS(=O)(=O)c2cccc(C(=O)NCCCn3ccnc3)c2)cc1", "Potency": "inactive"},
      {"smiles": "CCOc1ccc(S(=O)(=O)NC(C)C(=O)NC2CCCC2)cc1", "note": "(stereo unspecified)", "Potency": "inactive"},
      {"smiles": "CC(=O)Nc1ccc(C(=O)Nc2ccc(S(=O)(=O)N3CCOCC3)cc2)cc1", "Potency": "inconclusive [inhibitor, partial curve]"},
      {"smiles": "Cc1cccc(OCC(=O)N(Cc2ccco2)c2c(N)n(Cc3ccccc3)c(=O)[nH]c2=O)c1", "Potency": "inconclusive [inhibitor, partial curve, poor fit]"},
      {"smiles": "COc1cccc(C2=NOC(C(=O)NC(C)C)C2)c1", "note": "(stereo unspecified)", "Potency": "inconclusive [inhibitor, single point]"},
      {"smiles": "O=C(/C=C/c1ccc([N+](=O)[O-])o1)NNC(=O)c1ccc(F)cc1", "Potency": "inconclusive [inhibitor, partial curve]"},
      {"smiles": "C#CCOCCOCCOCCNc1nc(N2CCN(C(=O)[C@H](Cc3ccc(O)cc3)n3cc([C@@H](N)CC(C)C)nn3)CC2)nc(N2CCN(C(=O)[C@H](Cc3cc4ccccc4[nH]3)n3cc([C@@H](N)CC(C)C)nn3)CC2)n1", "Potency": "inconclusive [inhibitor, partial curve, poor fit]"},
      {"smiles": "CC(=O)CCCC(NS(=O)(=O)CCC(Cl)(Cl)Cl)c1ccccc1", "note": "(stereo unspecified)", "Potency": "inactive"},
      {"smiles": "CN1C2CCC1/C(=C/c1cccn1C)C(=O)/C2=C\\c1cccn1C", "Potency": "inactive"},
      {"smiles": "C=CC1CN2CCC1CC2C(OC(C)=O)c1ccnc2ccc(OC)cc12", "note": "(stereo unspecified)", "Potency": "active: 0.37 µM"},
      {"smiles": "COc1ccc(CC(=O)Nc2ccc(N3CCOCC3)cc2)cc1OC", "Potency": "inconclusive [inhibitor, partial curve, poor fit]"},
      {"smiles": "O=C(Nc1cc2c3c(c1)CC(=O)N3CCC2)C1CCCCC1", "Potency": "inactive"},
      {"smiles": "Cc1ccc(S(=O)(=O)NCCC(=O)OCC(=O)NCCc2ccccc2)cc1C", "Potency": "inactive"},
      {"smiles": "Cc1ccc(NC(=O)C2CCCN(S(=O)(=O)c3ccc4c(c3)oc(=O)n4C)C2)nc1", "note": "(stereo unspecified)", "Potency": "inconclusive [inhibitor, partial curve]"},
      {"smiles": "O=C(N=C1N=C2C=CC=CN2Cc2ccccc21)c1ccc(S(=O)(=O)N2CCCC2)cc1", "Potency": "inactive"},
      {"smiles": "c1ccc(-c2nc(N3CCOCC3)sc2-c2ccccc2)cc1", "Potency": "inactive"},
      {"smiles": "Cc1ccc([N+](=O)[O-])cc1N=Nc1c(-c2ccc([N+](=O)[O-])cc2)[nH]n(C(N)=S)c1=O", "Potency": "inconclusive [inhibitor, single point]"},
      {"smiles": "Cc1ccc(NC(=O)c2ccc(NCC3CCCO3)c([N+](=O)[O-])c2)cc1Cl", "note": "(stereo unspecified)", "Potency": "inconclusive [inhibitor, single point]"},
      {"smiles": "Cc1cc(C)cc(C(=O)NC(=S)Nc2ccc(Cc3ccncc3)cc2)c1", "Potency": "inconclusive [inhibitor, single point]"},
      {"smiles": "COCCN(CC(=O)NC1CCCCC1)C(=O)CCCC(=O)Nc1ccccn1", "Potency": "inactive"},
      {"smiles": "CC(C)OC(=O)c1c(N)n(Cc2ccco2)c2nc3ccccc3nc12", "Potency": "inactive"},
      {"smiles": "Clc1ccc2nc(-c3cccc(SC4CCCCC4)c3)c(NCc3ccccc3)n2c1", "Potency": "active: 4.15 µM"},
      {"smiles": "CCn1c(C)nc2cc(-c3nnc(-c4c(-c5ccccc5)noc4C)o3)ccc21", "Potency": "active: 9.28 µM"},
      {"smiles": "COc1ccccc1NC(=O)c1ccccc1NC(=O)c1cc(Cl)ccc1NC(=O)c1ccco1", "Potency": "inconclusive [inhibitor, single point]"}
    ]}
  ]
}
